# Some of the results follow.
# Molecular target: T1, OsWOX13 (Oryza sativa, UniProt Q5QMM3 1-267)
# T1 sequence: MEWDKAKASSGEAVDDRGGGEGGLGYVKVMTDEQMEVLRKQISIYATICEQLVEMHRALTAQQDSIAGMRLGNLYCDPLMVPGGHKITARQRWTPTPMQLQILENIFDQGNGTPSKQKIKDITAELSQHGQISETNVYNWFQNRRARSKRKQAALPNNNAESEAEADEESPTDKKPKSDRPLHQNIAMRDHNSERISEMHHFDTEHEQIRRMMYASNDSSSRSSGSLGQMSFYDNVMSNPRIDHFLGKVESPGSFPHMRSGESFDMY
# Experiment: protein-binding microarray (RPBM); PBS, 2% BSA, 51.3 ng/ul salmon testes DNA, 50 uM zinc acetate, 200 nM TF, 25 C, 1 h; high values mean tight binding
# Details: protein: recombinant; tags: N-terminal polyhistidine and DsRed monomer fusion (pET32a); label: CyDye5-dUTP incorporated in the synthesized complementary strand; 3' TTTTT single-stranded linker to array surface; dsDNA, one strand shown
# How it was run: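 Transcription factors were each fused at the N-terminus to a polyhistidine tag plus DsRed and expressed in E. coli BL21-CodonPlus before Ni–NTA purification. Binding to a double-stranded custom Agilent array was carried out with 200 nM protein at 25 °C for 1 h in PBS, 2% BSA, salmon testes DNA and 50 µM zinc acetate. The binding signal is per-feature fluorescence intensity, in arbitrary units, on an Axon 4000B scanner.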
row,Sequence,binding signal
1,AAAATTGATATATGTAAATATAATACAATGTAATTATTTGCGGAGTCACCTAGTGCAG,17800 fluorescence intensity (a.u.)
2,TCTTGATGATGTGGAGTTTATGGAAACTATGTCTAGTGTTCGGAGTCACCTAGTGCAG,5540 fluorescence intensity (a.u.)
3,TTGGTTAATTAAGGTGAAATTCACTTTGTTAAATTCGCTTCGGAGTCACCTAGTGCAG,12700 fluorescence intensity (a.u.)
4,GGCAAATCATCAAAGTTATTTGAGAAGATGGCATTTAGGACGGAGTCACCTAGTGCAG,4070 fluorescence intensity (a.u.)
5,TTTATACTAAATCTTTAATTAAGACGAATGATCAAACGTTCGGAGTCACCTAGTGCAG,3610 fluorescence intensity (a.u.)
6,AGATTGACGCCGACAAGATTGATTAAGCAAGGTAGGGAAACGGAGTCACCTAGTGCAG,21400 fluorescence intensity (a.u.)
7,AGCCAGCATTTATAATTTGTAATTCATATCCAAACGACTGCGGAGTCACCTAGTGCAG,3650 fluorescence intensity (a.u.)
8,ATGTAAATTGGTCAGACCCCTTTCTCTCACGTTGACCCTTCGGAGTCACCTAGTGCAG,27500 fluorescence intensity (a.u.)
9,AATTTCAATTATTCTATGACGGTTCAGATCATGCCCTGATCGGAGTCACCTAGTGCAG,3230 fluorescence intensity (a.u.)
10,CCCTCAATTATTATCATGTTCGATTTTCAAATCTCAACGACGGAGTCACCTAGTGCAG,15800 fluorescence intensity (a.u.)
11,ATGATGATCATGTTTGATTTTAAAATCTCAATGGCAATAACGGAGTCACCTAGTGCAG,16900 fluorescence intensity (a.u.)
12,ATTTTAAATGTGTCCTGATTTCTTTTCCATGTGATCCAGTCGGAGTCACCTAGTGCAG,6340 fluorescence intensity (a.u.)
13,CTATCAATTTATTATAGTCATCTGGTTGATCTCATAAACACGGAGTCACCTAGTGCAG,20800 fluorescence intensity (a.u.)
14,CAGACTAATTTTCAGTGGCATATAAGGGATTCTCTCTTGTCGGAGTCACCTAGTGCAG,6060 fluorescence intensity (a.u.)
15,AACAAGTAACCGATTGATTAATCAGAACAGGTGCTGATTACGGAGTCACCTAGTGCAG,15100 fluorescence intensity (a.u.)
16,CCACCAATCATAGCTAACGACGATGGAATTAGAATATGTTCGGAGTCACCTAGTGCAG,17700 fluorescence intensity (a.u.)
17,CATTACATCCAATCCAAGCGTGATGACATATCATCATCCTCGGAGTCACCTAGTGCAG,3490 fluorescence intensity (a.u.)
18,CGGGATGATGATGAGGAGCTGTTTGAGGGGAACTGGGTGGCGGAGTCACCTAGTGCAG,6080 fluorescence intensity (a.u.)
19,CTAAATTTCATATATTCTTCGTAGCTCATTTTCTTTGACGCGGAGTCACCTAGTGCAG,6400 fluorescence intensity (a.u.)
20,AAATATTTAATTAATTCTTCTGTCCTCGACACCTCTAAAACGGAGTCACCTAGTGCAG,6730 fluorescence intensity (a.u.)
21,TGTAGTAGTATTAAATTAATTTAGTTAATCAGGTAGTGGGCGGAGTCACCTAGTGCAG,10600 fluorescence intensity (a.u.)

row,Sequence,binding signal
1,ACTTTACCAAATTTCGGTCTCTTCATTTAGCATTATCAAACGGAGTCACCTAGTGCAG,3410 fluorescence intensity (a.u.)
2,GCATCAATTTAAAACTCGTAAAGTATTATTATTGATAAAGCGGAGTCACCTAGTGCAG,4580 fluorescence intensity (a.u.)
3,TTGAAACTACAAATCTATCGAAACATTAATAGATAGTCGCCGGAGTCACCTAGTGCAG,3770 fluorescence intensity (a.u.)
4,TATATATATATATATATATATATATATAACACACACCGTGCGGAGTCACCTAGTGCAG,33500 fluorescence intensity (a.u.)
5,ATGACGATTGAGAGAGATGATGTAACTATTTATACTCATTCGGAGTCACCTAGTGCAG,10800 fluorescence intensity (a.u.)
6,ATAAAGATTGAAAGGCCCAAAACGAATGTACCCGAATTCACGGAGTCACCTAGTGCAG,8310 fluorescence intensity (a.u.)
7,TTTTAAGTTAATGATTAGAGCCTTTATCGTCTCAACTATTCGGAGTCACCTAGTGCAG,5570 fluorescence intensity (a.u.)
8,AACCAAATTAAACACAACATCACATGGAAAACTACTCTAACGGAGTCACCTAGTGCAG,4460 fluorescence intensity (a.u.)
9,TTAATTTAATCACGCCACAAATTCCTGTCACCTTCGACCGCGGAGTCACCTAGTGCAG,32200 fluorescence intensity (a.u.)
10,TGGGGATTGGATTGCTATCTCGCGCGAGTGCTAGGAAGCTCGGAGTCACCTAGTGCAG,5180 fluorescence intensity (a.u.)
11,TTGTAAATTTGTGGACTTAAGTGAAACCTCATGACAAATTCGGAGTCACCTAGTGCAG,3980 fluorescence intensity (a.u.)
12,GTAATATAAGATTGGAATGGATAAATTCTAATACGAAGTACGGAGTCACCTAGTGCAG,5640 fluorescence intensity (a.u.)
13,TGTAATTAAAGTAATTTGGATAATAAAGTAAGTCACAAATCGGAGTCACCTAGTGCAG,15100 fluorescence intensity (a.u.)
14,TCCGTAATTGAATTCGTCATCTGATCCGATCCGAACGACCCGGAGTCACCTAGTGCAG,43000 fluorescence intensity (a.u.)
15,ACCAATTAAGACTACAAATTTGAGCAGATTCAAATTAAGCCGGAGTCACCTAGTGCAG,11700 fluorescence intensity (a.u.)
16,GTTCTCAATAAATTGAACCCTCTCCAATCTCCATGGCCTCCGGAGTCACCTAGTGCAG,4140 fluorescence intensity (a.u.)
17,TAACAAAACTGACAGAGTGATAAAAGAGGTGCAGATTGTGCGGAGTCACCTAGTGCAG,6190 fluorescence intensity (a.u.)
18,AATTATGATTGGATCATCCACAACAACCTCACAACACAAACGGAGTCACCTAGTGCAG,25500 fluorescence intensity (a.u.)
19,CTTGATTATACTTGAGATTTCCAGAAGCCTGCATTTCAGCCGGAGTCACCTAGTGCAG,28700 fluorescence intensity (a.u.)
20,AACAATTTTAGATAATCAGTAGGTATGTCTACTAATTGGTCGGAGTCACCTAGTGCAG,6280 fluorescence intensity (a.u.)
21,TCAAATAAATGTTTATAATAATTAATAATACTCGATTAACCGGAGTCACCTAGTGCAG,3350 fluorescence intensity (a.u.)
